Measured values published in the RNAGym collection of RNA variant scans (doi:10.7554/elife.90254).
The source gives no read counts; variants with many changes may rest on few reads.

B1: LINE1-mini (parent)
chain: GGCAGAGCUCAACACAGCGUGGCAAAGUGGCUGUGGCUAGACUGCC

Variants of: B1
Test: self-cleavage, relative activity (ratio to wild type); higher = more cleavage; in vitro, sequencing; the parent is a self-cleaving ribozyme

**Q.** Which self-cleavage does the source give for CGCAGAGCUCAACACAGCGUGGCAAGGUGGCUGUUGCUAGACUGCC here?
**A.** The self-cleavage was 0.03.

**Q.** With CGAAGAGCUCAAGACAGCGUGGCAAAGUGGCUGUGGCUAGCCUGCC as the variant, how does the self-cleavage read?
**A.** Its self-cleavage is 0.1.

**Q.** For CGCAGAGCUCAACGCAGCGUGGCAAAGUGCCUGAGGCUAGACUGCC, which self-cleavage is on record?
**A.** The self-cleavage was 0.

**Q.** With CGCAGAGCUCAACACGACGCGGCAAAGCGGCUGUGGCUAGACUGCC as the variant, how does the self-cleavage read?
**A.** Its self-cleavage is 0.15.

**Q.** Which self-cleavage does the source give for CGCAGAGCUCAACACGGCGUGGCAAAGUGACCGUGGCUAGACUGCC here?
**A.** Its self-cleavage is 0.03.

**Q.** For CGCAGAGCUCACCACAGCGUGGCAAAGUGGCUGUGGCUAGAUUCCC, which self-cleavage is on record?
**A.** Its self-cleavage is 0.02.

**Q.** For CGUAGAGAUCAACACAGCGUGGCAAAGUGGCUGUGGCUAGACUACC, which self-cleavage is on record?
**A.** The self-cleavage was 0.35.

**Q.** Which self-cleavage does the source give for CGUAGAGCUCAACACAGCGUGGCAAAGUGGCUGUGGCUAGACUGGC here?
**A.** Its self-cleavage is 0.33.

**Q.** For CGCAGAGCUCAACACAGCGUGGCUAAGUGUCUGUGGCUAGACUGCC, which self-cleavage is on record?
**A.** The self-cleavage was 0.1.

**Q.** For CGCAGAGCUCAACGCAGCGUGGCAUAGUGGCUAUGGCUAGCUUGCC, which self-cleavage is on record?
**A.** The self-cleavage was 0.02.

**Q.** For CGCAGAGCUCCACACAGCGUGGCAAAGAGGCUGUGGAUAGAUUGCC, which self-cleavage is on record?
**A.** The self-cleavage was 0.

**Q.** For CGCAGAGCUCGACACAGCGUGGCAAAAUGGCUGUGGCUAGACUGCC, which self-cleavage is on record?
**A.** Its self-cleavage is 0.01.

**Q.** For CGUAAAGCUCCACACAGCGUGGCAAGGUGGCUGUGGCUAGACUGCC, which self-cleavage is on record?
**A.** Its self-cleavage is 0.04.

**Q.** Which self-cleavage does the source give for CGCAGAGCUCUCCACAACGUGGUAAAGUGGCUGUCGCUAGACUGCC here?
**A.** The self-cleavage was 0.

**Q.** With CGGAGAGCUCAACACAGCGUGGCAAAGUGUAUGUGGCUAGACUGCC as the variant, how does the self-cleavage read?
**A.** Its self-cleavage is 0.29.

**Q.** Which self-cleavage does the source give for CGCAGAGCUCAACUCAGCGUCGCAAAGUGGCUGCGGCUAGACUGCC here?
**A.** Its self-cleavage is 0.01.

**Q.** With CGCAGAGCUCAACACGGCGUGGCAAAGCAGCUGUGGCUGGACUGCC as the variant, how does the self-cleavage read?
**A.** The self-cleavage was 0.05.

**Q.** With CGCAGAGCUCAACACAGCGUGGCCAAGUGCCUGUGGCUAGACUGCC as the variant, how does the self-cleavage read?
**A.** The self-cleavage was 0.28.

**Q.** Which self-cleavage does the source give for CGCAGAGCUCAACCCAGCGUAGCAAAGUGGCUUUGACUAGAGUGCC here?
**A.** The self-cleavage was 0.01.

**Q.** Which self-cleavage does the source give for CGCAGAGCUCAACACAGCGUGGCGAAGUUGCUAUGGCUAGACUGCC here?
**A.** The self-cleavage was 0.02.

**Q.** With CGUAUAGCAUAACACAGCGUGGAAACGUGGCUGUGGCUAGACUUCC as the variant, how does the self-cleavage read?
**A.** Its self-cleavage is 0.02.

**Q.** With CGCAGAGCUCAACACAGCGUGGCAUACUGGCUGUGGCUCGACUGCC as the variant, how does the self-cleavage read?
**A.** The self-cleavage was 0.

**Q.** Which self-cleavage does the source give for CGCAGAGCUCACCACAGCGUGGCAAAGUGACUUUGGCUAUACUGCC here?
**A.** The self-cleavage was 0.03.

**Q.** With CGCAGAGCUCUACACAGCGUGGCAAAGUCUCUGUGGCUAAACUGCC as the variant, how does the self-cleavage read?
**A.** The self-cleavage was 0.01.

**Q.** With CGGAGAGCUCAACACAGCGUGGCAAAGUCGCUAUGGGUAGACUGCC as the variant, how does the self-cleavage read?
**A.** The self-cleavage was 0.03.

**Q.** With CGCAGAGCUCAACACAGCGUGGCCGAGUGGUUGUGUCUAGACUGCC as the variant, how does the self-cleavage read?
**A.** Its self-cleavage is 0.02.

**Q.** With CGCAGAGCUCAACCCAGAGUGGCAAACUGGCUGUGGCUAGACUGCC as the variant, how does the self-cleavage read?
**A.** The self-cleavage was 0.03.

**Q.** With CGCAGAGCUCAGCACAGCGUGGCAAAGUGGCUGUGGCUAGACUGCA as the variant, how does the self-cleavage read?
**A.** The self-cleavage was 0.01.

**Q.** For CGUAGAGCUCAACACAGCGUGGCAAAUUGUCUGUGGCCAGACUGCA, which self-cleavage is on record?
**A.** The self-cleavage was 0.14.

**Q.** With CGUAGAGCUCAACACAGCGAGGCAAAGUGGCUGUGGCUAGACUGAC as the variant, how does the self-cleavage read?
**A.** Its self-cleavage is 0.09.

**Q.** Which self-cleavage does the source give for CGCAGAGCUCAACUCAGCGCGGCAAAGUGGCUGUGGCUAGACUGCC here?
**A.** The self-cleavage was 0.

**Q.** For CGGCGCGCUGAACACAGCGUGGCAAAGUGGCUGUGGCUAGACUGCC, which self-cleavage is on record?
**A.** Its self-cleavage is 0.03.

**Q.** For CGUAGAACUCAACACAGCGUGGCAAUGUGGCUGUGGCUACACUGCC, which self-cleavage is on record?
**A.** Its self-cleavage is 0.43.

**Q.** For CGAAGAGCUCAACACAGCGUGGCAAAGUGGCUGGGGCUAGACUGCC, which self-cleavage is on record?
**A.** Its self-cleavage is 0.07.

**Q.** With CGCAGAGCUCAACACGGCGUCGCAAAGUGGCUGUGGCUAGACUGCC as the variant, how does the self-cleavage read?
**A.** Its self-cleavage is 0.07.

**Q.** With CGCAGAGAUCAACGCAGCGUGGCAAAGUGGCUGUCGCUAUACUGCC as the variant, how does the self-cleavage read?
**A.** Its self-cleavage is 0.03.

**Q.** For CGGAGAGCUCUGCACAGCGUAGCAAAGUGACUGUGGCUAGACUGCC, which self-cleavage is on record?
**A.** Its self-cleavage is 0.02.

**Q.** Which self-cleavage does the source give for CGCAGAGCUCAACACAGCGUGGCCAAGUGGCUGUGGCUAGUCUGCC here?
**A.** The self-cleavage was 0.05.

**Q.** Which self-cleavage does the source give for CGUAGAGCUUAACACAGCGUGGCAAAGUGGCUGUGGAUAGACUGCG here?
**A.** Its self-cleavage is 0.01.

**Q.** Which self-cleavage does the source give for CGCAGAGCUCAACACUGCGUGGCAAAGUGGCUGUGGCAAGACUGCC here?
**A.** Its self-cleavage is 0.01.

**Q.** For CGCAGAGCUCAACACAGCGUGGCAAAGUGGCUGUGGCUGGAAUGUC, which self-cleavage is on record?
**A.** Its self-cleavage is 0.04.

**Q.** For CGCAGAGCUCAACGCAGCGUGGCAAAGUGGCUGUGGUUAGACUGCC, which self-cleavage is on record?
**A.** The self-cleavage was 0.01.

**Q.** For CGGAGAGCUCUACACAGCGUGGCAAAGUGGCUGUGGCUGGACUGCC, which self-cleavage is on record?
**A.** Its self-cleavage is 0.

**Q.** With CGCAGAGCUCAACACAGCGUGGCAUAGUAGCUGUGGCUAGACUGCU as the variant, how does the self-cleavage read?
**A.** Its self-cleavage is 0.12.

**Q.** For CGUAGAGCUCAACACAGCGUAGCCAACUGGCUGGGGCUAGACUGCC, which self-cleavage is on record?
**A.** The self-cleavage was 0.03.

**Q.** Which self-cleavage does the source give for CGCAGAGCUCAUCACAGCGUGGCAAAGUGGCUGAGGCUAGACUGCG here?
**A.** Its self-cleavage is 0.01.

**Q.** Which self-cleavage does the source give for CGUAGAUCUCAACACAGCCUGGCAAAGUGUCGGUGGCUAGAGUGCC here?
**A.** The self-cleavage was 0.04.

**Q.** With CGCAGAGCUCAACACAGCGUGGCGAAUUGGCUGUGGCUGGACUGCC as the variant, how does the self-cleavage read?
**A.** Its self-cleavage is 0.07.

**Q.** For CGUAGAGCUCAACGCAGCGUGGCAAAUUGGCUGAGGAUAGACUGCC, which self-cleavage is on record?
**A.** The self-cleavage was 0.05.

**Q.** For CGAAUAGCUCAACACAGCGUGGCAAAGUGGCUGUGGCUAGACUGCC, which self-cleavage is on record?
**A.** Its self-cleavage is 0.26.

**Q.** For CGCAGAGCUCAACACAGCGUGGCUAAGUUCCUGUGGCUAGACUGCU, which self-cleavage is on record?
**A.** Its self-cleavage is 0.04.

**Q.** Which self-cleavage does the source give for CGCAGAGCUCUACACAGCGUGGCAAAGUGGCUGUAGCUAGACUGCC here?
**A.** Its self-cleavage is 0.

**Q.** For CGCAGAGCUCAUCACAUCGUGGCAAAGUGCCUGUGGCUAGACUGCC, which self-cleavage is on record?
**A.** The self-cleavage was 0.04.

**Q.** For CGCAGAGCUCAACACGGCGUGGCAAAGUGUCUGUGGCUAGACUCCC, which self-cleavage is on record?
**A.** Its self-cleavage is 0.03.

**Q.** With CGCAGAGCUCAACACAGCGUGGCAAAGUGGCUGUGGCUGGACUUAC as the variant, how does the self-cleavage read?
**A.** Its self-cleavage is 0.

**Q.** Which self-cleavage does the source give for CGCAGAGCUCUACACAGCGUGGCAAAGUGGCUGUGACUAGUCUGCC here?
**A.** Its self-cleavage is 0.
